In article PMC11269665:
No constants are given. Whether binding was seen depends on the method and setting. Sequences can lack the tags named with a protein.

Amino acid sequences for entries named in this document (tags omitted).
UniProt Q14532: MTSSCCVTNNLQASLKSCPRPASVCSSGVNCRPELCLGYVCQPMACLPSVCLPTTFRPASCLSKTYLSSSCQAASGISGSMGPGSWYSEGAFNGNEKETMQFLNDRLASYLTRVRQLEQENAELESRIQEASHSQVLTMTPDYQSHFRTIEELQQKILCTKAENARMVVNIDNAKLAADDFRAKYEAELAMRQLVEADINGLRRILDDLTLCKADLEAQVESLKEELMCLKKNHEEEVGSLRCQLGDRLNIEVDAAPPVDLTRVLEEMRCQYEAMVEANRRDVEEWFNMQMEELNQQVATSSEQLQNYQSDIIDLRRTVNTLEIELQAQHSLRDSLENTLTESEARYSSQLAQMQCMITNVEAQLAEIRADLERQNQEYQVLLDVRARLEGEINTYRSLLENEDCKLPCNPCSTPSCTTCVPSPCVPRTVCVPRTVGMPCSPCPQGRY

Molecular target: GST-KRT32 (human) (UniProt Q14532)
Assay: pull-down; GST-KRT32 incubated 12 h with excess His-tagged NEMO, IKKα, IKKβ or IκBα, glutathione-Sepharose beads, Western blot with anti-GST and anti-His; both purified

B1: His-IKKβ (protein, UniProt O14920 1-756)
chain: MSWSPSLTTQTCGAWEMKERLGTGGFGNVIRWHNQETGEQIAIKQCRQELSPRNRERWCLEIQIMRRLTHPNVVAARDVPEGMQNLAPNDLPLLAMEYCQGGDLRKYLNQFENCCGLREGAILTLLSDIASALRYLHENRIIHRDLKPENIVLQQGEQRLIHKIIDLGYAKELDQGSLCTSFVGTLQYLAPELLEQQKYTVTVDYWSFGTLAFECITGFRPFLPNWQPVQWHSKVRQKSEVDIVVSEDLNGTVKFSSSLPYPNNLNSVLAERLEKWLQLMLMWHPRQRGTDPTYGPNGCFKALDDILNLKLVHILNMVTGTIHTYPVTEDESLQSLKARIQQDTGIPEEDQELLQEAGLALIPDKPATQCISDGKLNEGHTLDMDLVFLFDNSKITYETQISPRPQPESVSCILQEPKRNLAFFQLRKVWGQVWHSIQTLKEDCNRLQQGQRAAMMNLLRNNSCLSKMKNSMASMSQQLKAKLDFFKTSIQIDLEKYSEQTEFGITSDKLLLAWREMEQAVELCGRENEVKLLVERMMALQTDIVDLQRSPMGRKQGGTLDDLEEQARELYRRLREKPRDQRTEGDSQEMVRLLLQAIQSFEKKVRVIYTQLSKTVVCKQKALELLPKVEEVVSLMNEDEKTVVRLQEKRQKELWNLLKIACSKVRGPVSGSPDSMNASRLSQPGQLMSQPSTASNSLPEPAKKSEELVAEAHNLCTLLENAIQDTVREQDQSFTALDWSWLQTEEEEHSCLEQAS
With B1 the binding was “no binding”.
